Out of some 52,000 compounds screened, about 4,300 (8.3%) were called active. No stated cut-off is given here; in the data, active means survival mostly below about 52% (no sharp cut-off); inactive means mostly above about 56%. Some of the results follow.

For this test, the system named is DeltatarO mutant. Kind of test: growth inhibition of S. aureus wild type versus tarO mutant, primary screen, teichoic acid synthesis inhibitors, RN4220, OD600 (AID 463173). Particulars: OD600, 18 h, active compounds read low, screened at 18.75 µg/mL (by protocol).
Turning to `COC(=O)c1cccnc1-n1c(=O)c2cccnc2n(CC(=O)Nc2cccc(C(F)(F)F)c2)c1=O`, the survival is inactive: 72%.

Turning to `CCOc1cc(C2CC(=O)Nc3c2c(C)nn3-c2nc(C)cc(C)n2)ccc1O` (stereo not given), the survival was inactive: 82%.

Turning to `Cc1ccc(-c2onc(C)c2C)cc1S(=O)(=O)NC1CCC(C)CC1` (stereo not given), the survival was inactive: 82%.

As to `COc1ccccc1N1CCN(C(=O)c2oc3ccccc3c2N)CC1`, the survival was inactive: 52%.

Turning to `CCOC(=O)C1CCN(C(=O)c2nn(-c3ccc(C)cc3)c(=O)n(C)c2=O)CC1`, the survival is inactive: 69%.

Consider `COC(=O)c1c(-c2cccs2)csc1NC(=O)COc1ccc(C(C)C)cc1`, for which the survival was inactive: 72%.

Consider `CCOc1ccc(CNC(=O)c2cnc(SC)nc2C)cc1`, for which the survival is inactive: 107%.

With `CCc1ccc(CNC(=O)c2ccc(CS(=O)(=O)Cc3ccccc3C)o2)cc1`, the survival is inactive: 79%.

As for `O=C(Nc1ccc(Cl)cc1C(F)(F)F)c1cc(S(=O)(=O)NCc2ccccc2)ccc1F`, the survival was inactive: 130%.

For the compound `CCN(CC)C(=O)C1CCN(C(=O)c2cnn(-c3ccccc3)c2-n2cccc2)CC1`, the survival was inactive: 83%.

As to `CCOC(=O)CSc1nc2ccccc2n2c(C)nnc12`, the survival is inactive: 92%.

Turning to `COc1ccc(CNC(=O)CCS(=O)(=O)c2ccc3c(c2)CC(C)N3C(=O)C2CC2)cc1` (stereo not given), the survival was inactive: 95%.

Turning to `Cc1ccc(NC(=O)C(C)Sc2n[nH]c(-c3ccccc3O)n2)cc1` (stereo not given), the survival is active: 23%.

On to `COc1cccc(NC(=O)CN2C(=O)C3(SCC(=O)N3c3cc(C)cc(C)c3)c3ccccc32)c1` (stereo not given), for which the survival was inactive: 83%.

Turning to `Cc1ccc(NC(=O)C2CCN(S(=O)(=O)c3c(C)noc3C)CC2)cc1C`, the survival is inactive: 91%.

As for `Cc1ccc(CN2C(=O)N(c3ccc(C)c(Cl)c3)S(=O)(=O)c3ccccc32)cc1`, the survival was inactive: 83%.

Take `N#Cc1ccc(NC(=O)COCc2cc(-c3ccc(F)cc3)on2)cc1`: the survival was inactive: 60%.

As to `COC(=O)c1cc2oc(C)cc2n1Cc1ccc(Cl)cc1`, the survival was inactive: 73%.

As for `CCN1CCN(c2ncc3c(n2)CCN(Cc2ccc(C)s2)C3)CC1`, the survival was inactive: 64%.

As to `Cc1cccc(CCNC(=O)c2nc(-c3ccc(Cl)cc3)n3c2CCCCC3)c1`, the survival was inactive: 89%.

As to `CC(=O)c1ccc(NC(=O)COc2ccccc2-c2nc(C)no2)cc1`, the survival was inactive: 95%.

As for `CCn1c2c(c(=O)n3ncc(C(=O)Nc4ccc(F)c(Cl)c4)c13)CN(Cc1ccc(OC)cc1)CC2`, the survival is active: 17%.

With `CCOc1ccc(C(=O)OCc2cc(=O)n3nc(C(C)C)sc3n2)cc1`, the survival was inactive: 96%.

Consider `CC(C)CC(=O)N(Cc1ccccc1)S(=O)(=O)c1ccc2c(c1)oc(=O)n2C`, for which the survival was inactive: 105%.

`Cc1ccc(Cl)cc1N1CCN(C(=O)c2cn(C)c3ccc(S(=O)(=O)N4CCCC4)cc3c2=O)CC1`: the survival was inactive: 124%.

In the case of `CCOc1ccc(-n2ccnc2SCC(=O)Nc2ccc(OC)cc2OC)cc1`, the survival was inactive: 67%.

For `CC1=C(C(=O)OC2CCCC2)C(c2cccc(Cl)c2Cl)CC(=O)N1` (stereo not given), the survival is inactive: 65%.

With `O=C(CC(=O)Nn1cnnc1)Nn1cnnc1`, the survival was inactive: 91%.

Regarding `O=C(Cn1c(=O)n(-c2ccccc2)c(=O)c2c3c(sc21)CCCC3)Nc1ccc(F)cc1`, the survival is inactive: 98%.

On to `COc1ccccc1N1CCN(C(=O)c2cc3c(=O)n(Cc4cccnc4)ccc3nc2C)CC1`, for which the survival was inactive: 91%.

Consider `CCOc1ccccc1NC(=O)NC(CC)c1c(-n2cccc2)sc2c1CCN(C)C2` (stereo not given), for which the survival is inactive: 73%.

As to `CCc1ccc(Nc2nc3ccccc3c3nnc(C)n23)cc1`, the survival was inactive: 92%.

As for `Cc1cccc(N2CCN(C(=O)c3ccc4c(c3)CCN4S(=O)(=O)c3ccccc3)CC2)c1C`, the survival was inactive: 54%.

For `CC(=O)c1cc(-c2ccccc2)n(CC(=O)Nc2ccc(C)cc2C)c1C`, the survival was inactive: 87%.

For the compound `Cc1ccc(-c2nc(CS(=O)CC(=O)O)c(C)o2)cc1` (stereo not given), the survival was inactive: 91%.

Consider `Cc1ccc(S(=O)(=O)c2cn(CC(=O)Nc3ccccc3)c3cc4c(cc3c2=O)OCO4)cc1`, for which the survival was inactive: 51%.

For `CC(=O)Nc1cc(C(C)(C)C)nn1C`, the survival was inactive: 93%.

On to `CC(=O)c1ccc(OC(=O)c2c(-c3ccccc3Cl)noc2C)cc1`, for which the survival is inactive: 94%.

On to `CCCN(CCC)S(=O)(=O)c1ccc(C(=O)N2CCn3c4c(c5cc(C)ccc53)CCCC42)cc1` (stereo not given), for which the survival was inactive: 58%.

For the compound `O=C(COc1ccc(Cl)cc1Cl)Nc1ccc(C(=O)OC2CCCCC2)cc1`, the survival is inactive: 57%.

For the compound `Cn1nc(C(=O)Nc2cccc(C(F)(F)F)c2)c2c1-c1ccccc1S(=O)(=O)C2`, the survival is inactive: 50%.

As to `Cc1occc1C(=O)Nc1ccc2ccccc2c1`, the survival was inactive: 92%.

With `CCOc1ccc(NS(=O)(=O)c2ccc3[nH]cc(C(=O)NCCc4ccccc4)c(=O)c3c2)cc1`, the survival was inactive: 67%.

As for `Cn1c(SCC(=O)Nc2ccccc2F)nc2c([nH]c3ccccc32)c1=O`, the survival is inactive: 115%.

As to `CCOC(=O)c1cc(OC(=O)c2cc(Cl)ccc2OC)n(-c2ccccc2)n1`, the survival was inactive: 68%.

With `CCc1ccc(S(=O)(=O)c2nnn3c2nc(NCCC(C)C)c2cc(Cl)ccc23)cc1`, the survival is inactive: 67%.

Turning to `COc1ccc(N2CCN(CNC(=O)c3ccccc3)CC2)cc1`, the survival was inactive: 95%.

As to `CCOC(=O)c1ccc(NC(=O)C2CCCN(c3cnccn3)C2)cc1` (stereo not given), the survival is inactive: 74%.

For the compound `COc1ccc(Oc2ncnc3c2oc2ccccc23)cc1`, the survival is inactive: 55%.

Take `COc1cccc(/C=C(\C#N)c2nc3ccccc3c(=O)[nH]2)c1OC`: the survival was inactive: 84%.

For the compound `CCCC(C(=O)Nc1cc(C)c(Cl)cc1OC)N1Cc2ccccc2C1=O` (stereo not given), the survival was inactive: 81%.

Turning to `COc1cc(NC(=O)Cn2cc(S(=O)(=O)N3CCC(C)CC3)c3ccccc3c2=O)cc(OC)c1OC`, the survival was inactive: 72%.

`CCOC(=O)C1=C(CNCc2ccc(Cl)cc2)NC(=O)NC1c1ccccc1` (stereo not given): the survival was inactive: 102%.

For `CC(=O)N1c2ccccc2CC1C(=O)N1CCN(c2ccccc2F)CC1` (stereo not given), the survival is inactive: 76%.

On to `COc1ccc(CCNC(=O)Cn2nc(-c3ccc(Cl)cc3)ccc2=O)cc1OC`, for which the survival was inactive: 75%.

With `CCOc1ccc(Nc2ncnc3onc(-c4ccc(Cl)cc4)c23)cc1`, the survival was active: 38%.

On to `COc1cn(CC(=O)Nc2cccc(C)c2)c(CN2CCCCC2)cc1=O`, for which the survival is inactive: 85%.

As to `Cc1cc(C)cc(OC(C)C(=O)Nc2nc3c(s2)CCCC3)c1` (stereo not given), the survival is inactive: 79%.

With `Cc1cc(NC(=O)S(=O)(=O)c2ccccc2)ccc1NC(=O)c1ccco1`, the survival is inactive: 65%.

`O=S(=O)(c1ccccc1)N1CCc2ccccc2C1`: the survival is inactive: 114%.

For `Cc1ccc(C2C(=O)N(C3CCCCCC3)CC(=O)N2CCC2=CCCCC2)cc1` (stereo not given), the survival is inactive: 86%.

Take `Cc1ccc(N2CCN(C(=O)CCS(=O)(=O)c3cc4c(cc3Cl)NC(=O)CO4)CC2)c(C)c1`: the survival was inactive: 84%.

As for `CC1CCN(c2nc3c(S(=O)(=O)c4cccc(Cl)c4)nnn3c3ccsc23)CC1`, the survival was inactive: 81%.

`COc1cc([N+](=O)[O-])ccc1NC(=O)N1CCC2(CC1)Nc1cc(F)ccc1-n1cccc12`: the survival was active: 46%.

For `CC(C)(C)OC(=O)N1CCC(c2c(C(=O)N3CCN(c4ncccn4)CC3)cnn2-c2ccc(F)cc2)CC1`, the survival is active: 17%.

Turning to `CCOC(=O)c1c(-c2ccc(OC)cc2)oc2ccc(OCc3ccc(F)cc3F)cc12`, the survival is active: 38%.

`Cc1ccccc1Nc1nnc(-c2ccc(C)c(S(=O)(=O)NCC3CCCO3)c2)c2ccccc12` (stereo not given): the survival was inactive: 79%.

Regarding `CN(C)c1ccc(CNC(=O)C2CCN(C(=O)c3ccc(-n4ccc5ccccc54)s3)CC2)cc1`, the survival was inactive: 80%.

Regarding `CCn1cc(/C=C(\NC(=O)c2ccc(OC)c(OC)c2)C(=O)NCCCn2ccnc2)c2ccccc21`, the survival was inactive: 113%.

For the compound `CCOC(=O)c1cc(-c2ccc(OC)cc2)n(CCC(=O)NCCc2ccc(OCC)c(OCC)c2)c1C`, the survival was inactive: 69%.

For `Cc1ccc(NC(=O)N2CCC(CN3CCCCC3)CC2)c(Cl)c1`, the survival is inactive: 77%.

For the compound `C=CCn1cc(/C=C(/C#N)C(=O)OCC)c2ccccc21`, the survival is inactive: 83%.

On to `Cc1ccc(OCC(=O)Nc2ccc(C(=O)OCc3cc(=O)n4ccsc4n3)cc2)cc1C`, for which the survival was inactive: 101%.

For `CC(=O)c1ccc(N2CCN(S(=O)(=O)c3ccc(-c4cnc(C5CC5)o4)cc3)CC2)cc1`, the survival was inactive: 73%.

Consider `COC(CN1C(=O)c2ccccc2C1=O)OC`, for which the survival was inactive: 56%.

In the case of `Cc1nc2sccn2c(=O)c1S(=O)(=O)Nc1cccc(Cl)c1C`, the survival is inactive: 68%.

With `CCC1=C(c2ccc(C)cc2)S(=O)(=O)N=C1N1CCC(C(=O)NCCc2cccc(OC)c2)CC1`, the survival is inactive: 76%.

For `COc1cccc2c1cc1c(=O)n(CC(=O)NCCCN3CCN(C)CC3)nc(C)n12`, the survival was inactive: 100%.

`COc1ccc(OCCCn2c(C)nc3cc(C)c(C)cc32)cc1`: the survival was inactive: 52%.

For `O=C1Nc2c(c(=O)[nH]c(=O)n2-c2ccc(F)cc2)C1(NS(=O)(=O)c1ccc(Cl)cc1)C(F)(F)F` (stereo not given), the survival is inactive: 59%.

Consider `Cn1nnnc1SCCCNCc1cc(Cl)ccc1OCc1ccccc1`, for which the survival is inactive: 72%.

Take `CCOC(=O)c1ccc(NC(=O)C(CC)Sc2nncn3c2cc2oc(C)cc23)cc1` (stereo not given): the survival is inactive: 56%.

For the compound `Cc1cn2c(=O)cc(COC(=O)c3ccc(NC(=O)c4ccc(C(C)(C)C)cc4)cc3)nc2s1`, the survival is active: 20%.

For `CCC(Oc1ccccc1)C(=O)Nc1ccc(Cl)cn1` (stereo not given), the survival was inactive: 102%.

As to `COc1ccc(CNS(=O)(=O)c2csc(C(N)=O)c2)cc1OC`, the survival was inactive: 85%.

As for `COc1ccc(C2=Nc3ccccc3N(CC(=O)Nc3cccc(C(C)=O)c3)C(=O)C2)cc1`, the survival is inactive: 116%.

Regarding `c1cncc(CNC2CCCc3ccccc32)c1` (stereo not given), the survival is inactive: 74%.

`CCCCNc1nc2c(-c3cccc(Br)c3)nnn2c2ccccc12`: the survival was inactive: 101%.

Regarding `CCc1ccc2occ(CC(=O)NCc3ccccc3)c2c1`, the survival is inactive: 109%.

For `CCOc1ccc(C(=O)Nc2ccc(Cl)c(-c3nc4cc(C)cc(C)c4o3)c2)cc1`, the survival was inactive: 66%.
